The values below come from paper PMC4336329 (PLoS ONE, 2015).

Structures are written as SMILES. Hit rate of the full screen: of about 310,000 compounds, about 2,200 (0.71%) showed an effect of 50% or more. The effect is printed as a negative number. Some of the results follow.

human ether-à-go-go-related gene (hERG) potassium channel, sequence (Q12809 whole entry, looked up): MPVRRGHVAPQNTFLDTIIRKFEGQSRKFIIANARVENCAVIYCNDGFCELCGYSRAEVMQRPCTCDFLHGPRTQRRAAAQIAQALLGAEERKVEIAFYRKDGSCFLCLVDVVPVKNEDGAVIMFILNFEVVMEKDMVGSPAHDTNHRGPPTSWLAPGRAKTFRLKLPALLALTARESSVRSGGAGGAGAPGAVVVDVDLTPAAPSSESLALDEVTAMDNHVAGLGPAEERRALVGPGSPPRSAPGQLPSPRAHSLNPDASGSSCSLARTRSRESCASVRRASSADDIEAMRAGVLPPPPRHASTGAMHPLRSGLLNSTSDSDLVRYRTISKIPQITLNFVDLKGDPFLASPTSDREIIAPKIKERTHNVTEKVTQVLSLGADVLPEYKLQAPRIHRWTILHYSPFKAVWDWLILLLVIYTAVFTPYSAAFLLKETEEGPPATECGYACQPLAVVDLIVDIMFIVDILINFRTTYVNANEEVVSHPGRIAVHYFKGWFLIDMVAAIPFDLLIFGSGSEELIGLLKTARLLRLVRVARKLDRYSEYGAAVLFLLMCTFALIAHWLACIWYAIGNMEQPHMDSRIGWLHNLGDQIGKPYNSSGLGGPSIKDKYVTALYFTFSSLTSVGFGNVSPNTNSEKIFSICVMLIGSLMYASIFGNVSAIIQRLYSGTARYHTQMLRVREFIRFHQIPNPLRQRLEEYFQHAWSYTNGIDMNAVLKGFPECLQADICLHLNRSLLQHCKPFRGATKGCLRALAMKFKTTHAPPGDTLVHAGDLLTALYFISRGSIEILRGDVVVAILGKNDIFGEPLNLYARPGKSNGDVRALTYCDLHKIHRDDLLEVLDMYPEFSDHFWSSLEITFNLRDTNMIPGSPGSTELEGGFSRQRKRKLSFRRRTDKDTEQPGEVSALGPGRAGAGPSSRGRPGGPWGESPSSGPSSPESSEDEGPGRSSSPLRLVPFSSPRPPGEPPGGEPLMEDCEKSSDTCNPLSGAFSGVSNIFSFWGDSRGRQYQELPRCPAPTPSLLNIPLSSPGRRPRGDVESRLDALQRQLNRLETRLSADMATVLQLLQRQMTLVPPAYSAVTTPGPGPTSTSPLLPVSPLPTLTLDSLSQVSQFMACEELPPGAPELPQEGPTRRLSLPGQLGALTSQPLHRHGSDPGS

This assay concerns the target human ether-à-go-go-related gene (hERG) potassium channel (human, UniProt Q12809). Nature of the assay: primary screen, population patch clamp on CHO cells stably expressing hERG.
As for `CCOc1cc(C)c(S(=O)(=O)NCc2ccccn2)cc1C`, the “hERG current change (%, negative = inhibition) at 1uM” value turned out to be 5.57%.
The figure for `CCN(c1ccc(OC)cc1)S(=O)(=O)c1cc(-c2cc(C)no2)ccc1C(C)C` is 22.5%; for `COC(=O)c1c(NC(=O)C2CC(C)=C(C)CC2C(=O)O)sc2c1CCCCC2` (centres unmarked) it is 8.72%; for `COc1ccc(NC(=O)CN(C)C(=O)c2ccccc2SCC(=O)N2CCCC2)cc1` it is 11.7%.
The figure for `CC(=O)N1CCN(c2ccc(NC(=O)c3ccc(N4CCCC4)c([N+](=O)[O-])c3)cc2Cl)CC1` is -5.55%; for `COCCCNC(=O)CN1C(=O)CSc2ccc(S(=O)(=O)N3CCOCC3)cc21` it is 2.83%.
On to `CCOc1ccccc1OCCN1CCCC1`, for which the “hERG current change (%, negative = inhibition) at 1uM” value was found to be 11.3%.
Consider `CC(C)(C)NS(=O)(=O)c1ccc(CCC(=O)NCc2ccccn2)cc1`, for which the “hERG current change (%, negative = inhibition) at 1uM” value is on record as 13.3%.
The figure for `CCN(C(=O)CCc1nnc2ccc(NCc3ccco3)nn12)c1ccccc1` is 7.11%; for `CC(=O)c1c(C)[nH]c(C(=O)NCCc2ccccc2)c1C` it is 12.1%.
With `Cc1c(NC(=O)Oc2ccccc2)sc(=S)n1C` the figure was 8.03%; with `Cc1cc(NS(=O)(=O)c2ccc(NC(=O)COc3ccc(Cl)cc3Cl)cc2)no1`, -0.394%.
Regarding `Cc1ccc(S(=O)(=O)NCC(=O)N(CC(=O)NC2CCCC2)CC2CCCO2)cc1` (centres unmarked), the “hERG current change (%, negative = inhibition) at 1uM” value worked out at 12.1%.
`S=C(Nc1ccccc1)Nc1nc2ccccc2n1CCOc1ccc(Br)cc1`: the “hERG current change (%, negative = inhibition) at 1uM” value was determined as 11.1%.
With `CC(=O)N=c1n(C)c2ccccc2n1CCOc1ccccc1` the figure was 4.41%; with `O=C(Nc1ccccc1C(=O)O)c1cccc(N2C(=O)c3ccccc3C2=O)c1`, 13.9%; with `C=CCOC(=O)c1ccc(-n2cncn2)nc1`, 9.27%.
With `C=CCN(CC=C)C(=O)C1CC(=O)N(c2ccc(Br)cc2)C1` (centres unmarked), the “hERG current change (%, negative = inhibition) at 1uM” value is reported as -15%.
As to `Cc1ccc(CNC(=O)CCNS(=O)(=O)c2cccc3nonc23)cc1`, the “hERG current change (%, negative = inhibition) at 1uM” value is 26.9%.
`CCOc1ccc(/C=N/Nc2ccccc2)cc1`: the “hERG current change (%, negative = inhibition) at 1uM” value stood at 11.2%.
The figure for `O=[N+]([O-])c1cc(S(=O)(=O)N2CCOCC2)ccc1N1CCCC1` is 11.7%.
For `COc1ccccc1Oc1ccc2c(c1)C(=O)N(c1ccc(Br)c3cccnc13)C2=O`, the “hERG current change (%, negative = inhibition) at 1uM” value was 1.75%.
For `COc1cc(-c2nnc(-c3ccco3)o2)ccc1OCc1ccccc1`, the “hERG current change (%, negative = inhibition) at 1uM” value was 8.88%.
Turning to `COc1cc(NC(=O)C2CCCN(S(=O)(=O)c3ccc4[nH]c(=O)ccc4c3)C2)cc(OC)c1` (centres unmarked), the “hERG current change (%, negative = inhibition) at 1uM” value was determined as 15.7%.
Consider `COc1ccccc1-c1nnc2sc(C3CCCCC3)nn12`, for which the “hERG current change (%, negative = inhibition) at 1uM” value was -8.68%.
Regarding `O=C1c2ccccc2C(=O)N1CCSc1n[nH]c(=S)s1`, the “hERG current change (%, negative = inhibition) at 1uM” value was 12.5%.
The figure for `CCOC(=O)Cc1csc(NC(=O)CSc2nc(=O)[nH]c3c2CCCC3)n1` is 5.6%; for `COc1cccc(NC(=O)CSc2nc3ccccc3c3nc4ccccc4n23)c1` it is -5.54%; for `CCCn1c(=O)[nH]c(=O)c2c1nc(-c1cccs1)n2CCOC` it is 3.84%.
With `Cc1ccc(N(CC(=O)NCCSCc2ccco2)S(=O)(=O)c2ccc(C)cc2)cc1` the figure was -28.8%.
For the molecule `CN(C)S(=O)(=O)c1ccc(C(=O)N2CCC(c3nc4ccccc4o3)CC2)cc1`, the “hERG current change (%, negative = inhibition) at 1uM” value is on record as -3.18%.
With `CCCc1cc(=O)oc2cc(OC(C)C(=O)NCCCn3ccnc3)ccc12` (centres unmarked) the figure was -3.79%; with `c1ccc2c(c1)NC1(CCCCC1)n1c-2nc2ccccc21`, 0.831%.
The figure for `O=C(C[n+]1cc(Br)cc2ccccc21)c1ccc(Br)cc1.[Br-]` is -15.6%; for `CCc1ccc(N2CCN(C(=O)c3ccc4c(c3)OCO4)CC2)cc1` it is -5.89%.
Regarding `Cc1cccnc1NC(=O)CNC(=O)c1cccs1`, the “hERG current change (%, negative = inhibition) at 1uM” value is given as 4.75%.
The figure for `C/C(=N\NS(=O)(=O)c1ccc(Br)cc1)c1ccncc1` is 6.15%; for `O=C(CNCc1ccc(F)cc1)Nc1ccc(C(=O)N2CCCCC2)cc1.O=C(O)C(=O)O` it is 11.1%.
The figure for `Cc1cccc(NC(=O)c2cccc(N3C(=O)C4C5C=CC(C6CC56)C4C3=O)c2)c1` (centres unmarked) is 4.86%; for `O=C(Nc1ccnc(-c2cccnc2)n1)c1ccc(F)cc1` it is -3.14%.
In the case of `O=C(CN1N=C(c2ccc(Cl)cc2)CCC1=O)NCc1cccs1`, the “hERG current change (%, negative = inhibition) at 1uM” value is 0.718%.
`CC(=O)N1c2c(cc(Br)cc2S(=O)(=O)NCc2ccc(C)cc2)CC1C` (centres unmarked): the “hERG current change (%, negative = inhibition) at 1uM” value is reported as -12.2%.
The figure for `O=C(Cc1csc(NC(=O)Nc2cccc(Cl)c2)n1)NCc1ccccn1` is 8.02%.
For the molecule `Cc1cc2c(n1-c1ccc(Cl)cc1)CC(C)(C)CC2=O`, the “hERG current change (%, negative = inhibition) at 1uM” value was -2.53%.
With `COc1ccc(-c2cc(=O)oc3cc4occ(C)c4cc23)cc1` the figure was -5.04%; with `Cc1cc(NS(=O)(=O)c2ccc(NC(=O)Cc3cccs3)cc2)no1`, 0.777%.
With `N#CC1(c2c(O)nc3n(c2=O)CCCS3)CCCCC1` the figure was 11.9%; with `CC(C)(C)c1cc(C(=O)NNc2cccc(Cl)c2)n(Cc2ccccc2)n1`, 12.8%.
Regarding `COc1ccc(C(=O)NCCc2ccc(S(N)(=O)=O)cc2)cc1OC`, the “hERG current change (%, negative = inhibition) at 1uM” value is on record as -4.77%.
The figure for `O=C(O)c1ccccc1SC1CC(=O)N(c2ccccc2)C1=O` (centres unmarked) is -0.125%; for `CCC(=O)NC(C)c1nc2ccccc2n1C` (centres unmarked) it is 10.6%.
Consider `Cc1cc(=O)oc2c(C)c(OC(C)C(=O)NCCN3CCOCC3)ccc12` (centres unmarked), for which the “hERG current change (%, negative = inhibition) at 1uM” value was 19.3%.
With `COc1ccc(OCC(=O)N2CCN(C(=O)COc3ccccc3)CC2)cc1`, the “hERG current change (%, negative = inhibition) at 1uM” value is given as -24.7%.
On to `O=C(COc1ccc(Br)cc1Cl)NC(=O)Nc1ccc2c(c1)OCCO2`, for which the “hERG current change (%, negative = inhibition) at 1uM” value is recorded as 2.79%.
With `Fc1cccc(CSc2ncnc3c2oc2ccccc23)c1`, the “hERG current change (%, negative = inhibition) at 1uM” value came out at 9.17%.
On to `O=C(O)CS(=O)(=O)c1ccc(Oc2ccc(S(=O)(=O)CC(=O)O)cc2)cc1`, for which the “hERG current change (%, negative = inhibition) at 1uM” value came to 6.57%.
Turning to `O=C(NCc1cccc(C(F)(F)F)c1)C1CC(c2ccccc2C(F)(F)F)=NO1` (centres unmarked), the “hERG current change (%, negative = inhibition) at 1uM” value is recorded as 2.14%.
The figure for `O=C(N/N=C/c1ccc(F)c(F)c1)c1cc2c(s1)-c1ccccc1CC2` is 10.1%.
For `CCN(CC)CCNC(=O)c1cn(CC)c2ccc(S(=O)(=O)N3CCc4ccccc4C3)cc2c1=O`, the “hERG current change (%, negative = inhibition) at 1uM” value is recorded as -5.47%.
The figure for `NC(=O)c1cc([N+](=O)[O-])ccc1NCc1cccnc1` is 3.58%; for `Cc1ccccc1NC(=O)CCc1c(C)nn(-c2ccc(N3CCOCC3)nn2)c1C` it is 6.68%.
The figure for `CCOC(=O)c1csc(COc2ccccc2Cl)n1` is -9.93%; for `CC1=C(C(=O)OCC(C)C)C2(O)C(=O)c3ccccc3C2(O)N1` (centres unmarked) it is 9.25%.
The figure for `COCc1nnc(NC(=O)c2ccc(S(=O)(=O)N3CCOCC3)cc2)o1` is 7.52%.
Consider `COCCOC(=O)C1=C(C)N(c2ccccc2)C(=O)NC1c1cccc([N+](=O)[O-])c1` (centres unmarked), for which the “hERG current change (%, negative = inhibition) at 1uM” value is listed as 3.93%.
With `Cc1nnc(N2C(=O)C(=O)/C(=C(/O)c3ccc4c(c3)OCCO4)C2c2ccc(F)cc2)s1` (centres unmarked) the figure was 13.2%; with `COc1ccc(NC(=O)CCC(=O)c2cccs2)c(OC)c1`, 12.5%.
The figure for `O=C(Nc1ccc(F)cc1F)c1ccc2ncsc2c1` is 13.7%; for `COc1ccc(-c2csc3ncnc(N4CCN(c5ccccc5[N+](=O)[O-])CC4)c23)cc1` it is 13.2%; for `COc1ccc(NC(=O)[C@H](COCc2ccccc2)NC(=O)OC(C)(C)C)cc1` it is 5.44%.
As to `Cc1onc(-c2c(F)cccc2Cl)c1C(=O)NC1CCCCCC1`, the “hERG current change (%, negative = inhibition) at 1uM” value is given as 10.3%.
The figure for `N#Cc1c(NC(=O)CCN2C(=O)c3ccccc3C2=O)oc(-c2ccccc2)c1-c1ccccc1` is 12.4%.
With `CC(C)n1c(Sc2nccn2C)nc2c1c(=O)n(C)c(=O)n2C` the figure was 1.05%; with `Cc1cccc(C)c1NC(=O)CN1N=NC2C(=O)N(c3cccc(Cl)c3)C(=O)C21` (centres unmarked), 2.39%; with `OCCC1CN(Cc2cccc3nonc23)CCN1C1CCCCC1` (centres unmarked), 20%.
As to `COc1ccccc1CC(=O)Nc1ccccc1O`, the “hERG current change (%, negative = inhibition) at 1uM” value is 18.1%.
The figure for `COc1ccc(NC(=O)COC(=O)c2ccc(-n3cnnn3)cc2)c([N+](=O)[O-])c1` is 6.59%; for `Cc1cc(C=C2C(=O)c3ccccc3C2=O)c(C)n1-c1ccc(C(=O)O)cc1` it is 6.32%; for `COc1ccc(NC(=O)COC(=O)Cc2c(F)cccc2Cl)cc1` it is 14.1%.
The figure for `CC(=O)CSc1nnc(Cc2ccc([N+](=O)[O-])cc2)o1` is 7.03%; for `CC(NC(=O)CCCC1CCCCC1)c1ccc(S(N)(=O)=O)cc1` (centres unmarked) it is 13.7%.
With `CN=c1scc(-c2ccccc2F)n1/N=C(\C)c1cccnc1` the figure was 7.54%; with `COc1ccc2cc3cc(C(=O)NCCN4CCN(c5ccccc5F)CC4)oc3nc2c1`, 4.99%; with `CC(=O)N(CCc1ccccc1C)Cc1cc2cc3c(cc2[nH]c1=O)OCO3`, 10.1%.
For the molecule `CCOC(=O)[C@H]1[C@H]2COc3ccc(Cl)cc3[C@@H]2N2C(=O)c3cc(Br)ccc3NC(=O)[C@@]12C`, the “hERG current change (%, negative = inhibition) at 1uM” value came out at 7.77%.
With `Cc1ccc(NC(=O)CSc2n[nH]c(-c3ccco3)n2)c(C)c1`, the “hERG current change (%, negative = inhibition) at 1uM” value is recorded as 4.49%.
